The source of these data is the supplement of paper PMC4967469.

By IC50 is meant the dose at which the fit gives 50% viability; a limit (>, <) means that the fit lies beyond the doses tested. For AUC the same curve is integrated over the 256-fold range of doses and scaled to a fraction; it is 1 without any effect and falls as sensitivity rises. The top dose, if marked as inferred, comes from the curve model; the source does not state it. For some assays here: Drugs with an entry number were screened twice under separate entries, and the two screens often disagree.

Compound in the first assay: COc1cc(N2CCN(C)CC2)ccc1Nc1ncc2c(n1)N(C)c1ccccc1C(=O)N2C [XMD8-85]
Kind of assay: Viability of human cancer cell lines after 72 h of drug (GDSC screen). As to conditions: top dose 8 µM; top dose inferred. As for the experimental part: (§1)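 Human cancer cell lines in 384-well plates, medium with 10% serum, drug for 72 h over a 256-fold dose range (nine 2-fold or five 4-fold steps up to the top dose). Adherent lines were fixed and stained with the nucleic acid dye Syto60, suspension lines read with resazurin; signal relative to control wells, capped at 0 and 100%. One two-parameter sigmoid per drug and line, fitted in a mixed model over all curves with the slope shared within a line.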
Turning to “LAMA-84 (chronic myeloid leukaemia, suspension)”, the AUC amounted to 0.902 and the IC50 – broadly, the concentration needed to halve the response being measured – is > 8 µM.

As for “LC4-1 (lymphoblastic leukaemia, suspension)”, the AUC amounted to 0.772 and the IC50 was 3.41 µM.

With “LOUCY (T-cell lymphoblastic leukaemia, suspension)”, the AUC was found to be 0.961 and the IC50 was > 8 µM.

LS-411N (large intestine, adherent): the AUC was found to be 0.826 and the IC50 came to 6.3 µM.

Regarding “LU-134-A (small cell lung carcinoma, suspension)”, the AUC came to 0.938 and the IC50 was > 8 µM.

Turning to “LU-139 (small cell lung carcinoma, suspension)”, the AUC is 0.859 and the IC50 was > 8 µM.

Consider “LU-165 (small cell lung carcinoma, suspension)”, for which the AUC was found to be 0.988 and the IC50 was > 8 µM.

As to MC116 (B-cell lymphoma, suspension), the AUC worked out at 0.935 and the IC50 was found to be 6.01 µM.

As for “ME-1 (acute myeloid leukaemia, suspension)”, the AUC amounted to 0.844 and the IC50 stood at 6.36 µM.

Regarding “MEG-01 (chronic myeloid leukaemia, suspension)”, the AUC came to 0.844 and the IC50 is 5.23 µM.

In the case of MFH-ino (soft tissue, adherent), the AUC was found to be 0.848 and the IC50 was 7.62 µM.

For MHH-NB-11 (neuroblastoma, adherent), the AUC is 0.882 and the IC50 is > 8 µM.

Turning to “MHH-PREB-1 (B-cell leukaemia, suspension)”, the AUC came out at 0.821 and the IC50 was determined as 4.01 µM.

Turning to “ML-2 (acute myeloid leukaemia, suspension)”, the AUC turned out to be 0.89 and the concentration for half-maximal inhibition (IC50) worked out at 7.42 µM.

Take MOLP-8 (myeloma, suspension): the AUC is 0.743 and the IC50 came to 2.41 µM.

Take “MOLT-4 (lymphoblastic leukaemia, suspension)”: the AUC came to 0.962 and the IC50 is > 8 µM.

On to “MONO-MAC-6 (acute myeloid leukaemia, suspension)”, for which the AUC turned out to be 0.911 and the IC50 is > 8 µM.

Regarding MRK-nu-1 (breast, suspension), the AUC came to 0.918 and the IC50 is > 8 µM.

As for “MS-1 (small cell lung carcinoma, suspension)”, the AUC is 0.858 and the IC50 is 5.51 µM.

NB17 (neuroblastoma, adherent): the AUC worked out at 0.971 and the IC50 was > 8 µM.

Take “NCI-H64 (small cell lung carcinoma, suspension)”: the AUC is 0.995 and the IC50 was > 8 µM.

For the cell line “NCI-H69 (small cell lung carcinoma, suspension)”, the AUC amounted to 0.941 and the half-maximal inhibitory concentration (IC50) was > 8 µM.

Compound in another assay: Cc1cc(N2CCOCC2)cc2[nH]c(-c3c(NC[C@@H](O)c4cccc(Cl)c4)cc[nH]c3=O)nc12 [BMS-536924]
The assay is described as above. As to conditions: top dose 4 µM; screen: GDSC drug entry 1091; top dose inferred. As for the experimental part: as §1
Take “LAMA-84 (chronic myeloid leukaemia, suspension)”: the AUC is 0.981 and the IC50 is > 4 µM.

Consider “LC4-1 (lymphoblastic leukaemia, suspension)”, for which the AUC amounted to 0.977 and the IC50 is > 4 µM.

Turning to “LOUCY (T-cell lymphoblastic leukaemia, suspension)”, the AUC is 0.991 and the IC50 is > 4 µM.

With LS-411N (large intestine, adherent), the AUC turned out to be 0.892 and the IC50 was > 4 µM.

As for “LU-134-A (small cell lung carcinoma, suspension)”, the AUC is 0.879 and the IC50 was > 4 µM.

On to “LU-139 (small cell lung carcinoma, suspension)”, for which the AUC was determined as 0.972 and the IC50 was > 4 µM.

Turning to “LU-165 (small cell lung carcinoma, suspension)”, the AUC worked out at 0.927 and the IC50 is > 4 µM.

MC116 (B-cell lymphoma, suspension): the AUC was 0.999 and the IC50 is > 4 µM.

Turning to “ME-1 (acute myeloid leukaemia, suspension)”, the AUC came to 0.987 and the IC50 was > 4 µM.

On to “MEG-01 (chronic myeloid leukaemia, suspension)”, for which the AUC was 0.957 and the IC50 is > 4 µM.

In the case of MFH-ino (soft tissue, adherent), the AUC was found to be 0.954 and the IC50 was > 4 µM.

Consider “MHH-PREB-1 (B-cell leukaemia, suspension)”, for which the AUC amounted to 0.906 and the IC50 was > 4 µM.

“ML-2 (acute myeloid leukaemia, suspension)”: the AUC was determined as 0.927 and the IC50 was > 4 µM.

For the cell line MOLP-8 (myeloma, suspension), the AUC was 0.747 and the IC50 was found to be 1.24 µM.

Consider “MOLT-4 (lymphoblastic leukaemia, suspension)”, for which the AUC turned out to be 0.945 and the IC50 was > 4 µM.

As to “MONO-MAC-6 (acute myeloid leukaemia, suspension)”, the AUC stood at 0.694 and the IC50 turned out to be 0.905 µM.

Take MRK-nu-1 (breast, suspension): the AUC was found to be 0.984 and the IC50 is > 4 µM.

Turning to “MS-1 (small cell lung carcinoma, suspension)”, the AUC stood at 0.938 and the IC50 was > 4 µM.

Take “NCI-H69 (small cell lung carcinoma, suspension)”: the AUC stood at 0.939 and the IC50 is > 4 µM.

The same assay, now with this note: top dose 5.12 µM; screen: GDSC drug entry 62.
Turning to “LAMA-84 (chronic myeloid leukaemia, suspension)”, the AUC is 0.792 and the IC50 is 2.35 µM.

As to “LC4-1 (lymphoblastic leukaemia, suspension)”, the AUC was 0.935 and the IC50 was > 5.12 µM.

Turning to “LOUCY (T-cell lymphoblastic leukaemia, suspension)”, the AUC is 0.983 and the IC50 was > 5.12 µM.

As for LS-411N (large intestine, adherent), the AUC was found to be 0.576 and the IC50 was 0.542 µM.

As to “LU-134-A (small cell lung carcinoma, suspension)”, the AUC came to 0.791 and the IC50 amounted to 2.47 µM.

For “LU-139 (small cell lung carcinoma, suspension)”, the AUC was 0.98 and the IC50 was > 5.12 µM.

Regarding “LU-165 (small cell lung carcinoma, suspension)”, the AUC stood at 0.899 and the IC50 was > 5.12 µM.

In the case of MC116 (B-cell lymphoma, suspension), the AUC was determined as 0.983 and the IC50 was > 5.12 µM.

Turning to “ME-1 (acute myeloid leukaemia, suspension)”, the AUC was determined as 0.97 and the IC50 was > 5.12 µM.

Regarding “MEG-01 (chronic myeloid leukaemia, suspension)”, the AUC worked out at 0.879 and the IC50 came to 4.71 µM.

As for MFH-ino (soft tissue, adherent), the AUC came out at 0.508 and the IC50 was found to be 0.338 µM.

As for MHH-NB-11 (neuroblastoma, adherent), the AUC was determined as 0.983 and the IC50 is > 5.12 µM.

In the case of “MHH-PREB-1 (B-cell leukaemia, suspension)”, the AUC came out at 0.862 and the IC50 was determined as 3.66 µM.

For “ML-2 (acute myeloid leukaemia, suspension)”, the AUC is 0.41 and the IC50 was determined as 0.187 µM.

As to MOLP-8 (myeloma, suspension), the AUC was 0.532 and the IC50 was 0.389 µM.

Consider “MOLT-4 (lymphoblastic leukaemia, suspension)”, for which the AUC came out at 0.891 and the IC50 amounted to 4.03 µM.

As for “MONO-MAC-6 (acute myeloid leukaemia, suspension)”, the AUC came out at 0.602 and the IC50 stood at 0.62 µM.

On to MRK-nu-1 (breast, suspension), for which the AUC turned out to be 0.965 and the IC50 is > 5.12 µM.

Turning to “MS-1 (small cell lung carcinoma, suspension)”, the AUC is 0.971 and the IC50 was > 5.12 µM.

NB17 (neuroblastoma, adherent): the AUC is 0.799 and the IC50 was 2.9 µM.

As for “NCI-H64 (small cell lung carcinoma, suspension)”, the AUC turned out to be 0.996 and the IC50 is > 5.12 µM.

As for “NCI-H69 (small cell lung carcinoma, suspension)”, the AUC stood at 0.92 and the IC50 is > 5.12 µM.

Compound in a further assay: O=C1NC(=O)c2c1c(-c1ccccc1Cl)cc1[nH]c3ccc(O)cc3c21 [Wee1 inhibitor 681640]
The description is as above. To be noted: top dose 2 µM; top dose inferred. As for the experimental part:
as §1
As to “LAMA-84 (chronic myeloid leukaemia, suspension)”, the AUC turned out to be 0.81 and the IC50 is 1.07 µM.
